Source: the supplement of paper PMC12217912
The list shows a part of the results. The full chains were built here from the parent and the listed change. Values near 0.05 are background.

B1: TEV protease; numbered along this chain (parent)
chain: MGESLFKGPRDYNPISSSICHLTNESDGHTTSLYGIGFGPFIITNKHLFRRNNGTLVVQSLHGVFKVKDTTTLQQHLVDGRDMIIIRMPKDFPPFPQKLKFREPQREERICLVTTNFQTKSMSSMVSDTSCTFPSGDGIFWKHWIQTKDGQCGSPLVSTRDGFIVGIHSASNFTNTNNYFTSVPKNFMELLTNQEAQQWVSGWRLNADSVLWGGHKVFMVKPEEPFQPVKEATQL

Variants of: B1
Experiment: raw area under fraction-flipped curve 0-4 h after induction (AUC4h, not background-subtracted), DNA-recorder readout of cleavage of the substrate (dimensionless); higher = more cleavage of the substrate by the protease variant
Conditions: temperature: 34 °C; time window: 0-4 h after rhamnose induction
Protocol: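 In vivo DNA recorder in E. coli TOP10(DE3) ΔrhaA at 34 °C. Each TEVp single-site mutant (parent TEVp 0) is paired with a single-site variant of the 7-mer TEVs (canonical ENLYFQ|S). The substrate sits between flexible linkers in a Bxb1-sfGFP-TEVs-SsrA fusion, so cleavage stabilises Bxb1 and speeds flipping of a recombination array, read by NGS. The value is the raw area under the fraction-flipped curve over 0-4 h after rhamnose induction (AUC4h), with ≥20 reads per time point. It is not background-subtracted; inactive controls average about 0.047.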
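Further: Bxb1 expression induced with 0.2% (w/v) L-rhamnose at OD600 near 0.5, cultures sampled hourly, flipped fraction per protease–substrate barcode pair counted by paired-end Illumina sequencing.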

| Variant | area with substrate ENLYFAS | area with substrate ENLYFCS | area with substrate ENLYFFS | area with substrate ENLYFGS | area with substrate ENLYFHS | area with substrate ENLYFIS | area with substrate ENLYFMS | area with substrate ENLYFPS | area with substrate ENLYFRS | area with substrate ENLYFSS | area with substrate ENLYFTS | area with substrate ENLYFWS | area with substrate ENLYFDS | area with substrate ENLYFES | area with substrate ENLYFKS | area with substrate ENLYFLS | area with substrate ENLYFNS | area with substrate ENLYFVS | area with substrate ENLYFYS |
| --- | --- | --- | --- | --- | --- | --- | --- | --- | --- | --- | --- | --- | --- | --- | --- | --- | --- | --- | --- |
| MGESLFKGPRDYNPISSSICHLTNESDGHTTSLYGIGFGPFIITNKHLFRRNNGTLVVQSLHGVFKVKDTTTLQQHLVDGRDMIIRRMPKDFPPFPQKLKFREPQREERICLVTTNFQTKSMSSMVSDTSCTFPSGDGIFWKHWIQTKDGQCGSPLVSTRDGFIVGIHSASNFTNTNNYFTSVPKNFMELLTNQEAQQWVSGWRLNADSVLWGGHKVFMVKPEEPFQPVKEATQL [I86R] | 0.0415 | 0.0537 | 0.0512 | 0.0223 | 0.0203 | 0.0396 | 0.0418 | 0.0396 | 0.0226 | 0.0399 | 0.0414 | 0.0332 | – | – | – | – | – | – | – |
| MGESLFKGPRDYNPISSSICHLTNESDGHTTSLYGIGFGPFIITNKHLFRRNNGTLVVQSLHGVFKVKDTTTLQQHLVDGRDMIIFRMPKDFPPFPQKLKFREPQREERICLVTTNFQTKSMSSMVSDTSCTFPSGDGIFWKHWIQTKDGQCGSPLVSTRDGFIVGIHSASNFTNTNNYFTSVPKNFMELLTNQEAQQWVSGWRLNADSVLWGGHKVFMVKPEEPFQPVKEATQL [I86F] | 0.0627 | – | 0.0661 | – | 0.0575 | 0.0584 | 0.049 | 0.0605 | – | – | 0.0542 | 0.0487 | 0.053 | 0.0615 | 0.0626 | 0.0593 | 0.056 | 0.0553 | 0.0909 |
| MGESLFKGPRDYNPISSSICHLTNESDGHTTSLYGIGFGPFIITNKHLFRRNNGTLVVQSLHGVFKVKDTTTLQQHLVDGRDMIIIRMPKDFPPFPQKCKFREPQREERICLVTTNFQTKSMSSMVSDTSCTFPSGDGIFWKHWIQTKDGQCGSPLVSTRDGFIVGIHSASNFTNTNNYFTSVPKNFMELLTNQEAQQWVSGWRLNADSVLWGGHKVFMVKPEEPFQPVKEATQL [L99C] | 0.0561 | – | 0.0627 | – | 0.0459 | 0.0535 | 0.0544 | 0.0488 | 0.0602 | 0.0632 | 0.0631 | 0.0698 | 0.06 | 0.0537 | – | 0.0623 | 0.0523 | 0.0516 | 0.05 |
| MGESLFKGPRDYNPISSSICHLTNESDGHTTSLYGIGFGPFIITNKHLFRRNNGTLVVQSLHGVFKVKDTTTLQQHLVDGRDMIIIRMPKDFPPFPQKLKQREPQREERICLVTTNFQTKSMSSMVSDTSCTFPSGDGIFWKHWIQTKDGQCGSPLVSTRDGFIVGIHSASNFTNTNNYFTSVPKNFMELLTNQEAQQWVSGWRLNADSVLWGGHKVFMVKPEEPFQPVKEATQL [F101Q] | 0.0627 | 0.0564 | 0.0591 | – | 0.0573 | 0.0561 | 0.0541 | 0.0582 | 0.0616 | 0.039 | 0.0526 | 0.0489 | 0.0553 | 0.0506 | 0.0421 | 0.0491 | 0.0534 | – | 0.0478 |
| MGESLFKGPRDYNPISSSICHLTNESDGHTTSLYGIGFGPFIITNKHLFRRNNGTLVVQSLHGVFKVKDTTTLQQHLVDGRDMIIIRMFKDFPPFPQKLKFREPQREERICLVTTNFQTKSMSSMVSDTSCTFPSGDGIFWKHWIQTKDGQCGSPLVSTRDGFIVGIHSASNFTNTNNYFTSVPKNFMELLTNQEAQQWVSGWRLNADSVLWGGHKVFMVKPEEPFQPVKEATQL [P89F] | 0.0506 | – | 0.103 | – | – | 0.052 | – | 0.051 | 0.0613 | – | 0.0643 | – | 0.0441 | 0.0672 | – | – | – | 0.0457 | – |
| MGESLFKGPRDYNPISSSICHLTNESDGHTTSLYGIGFGPFIITNKHLFRRNNGTLVVQSLHGVFKVKDTTTLQQHLVDGRDMIIIRMPKDFPPRPQKLKFREPQREERICLVTTNFQTKSMSSMVSDTSCTFPSGDGIFWKHWIQTKDGQCGSPLVSTRDGFIVGIHSASNFTNTNNYFTSVPKNFMELLTNQEAQQWVSGWRLNADSVLWGGHKVFMVKPEEPFQPVKEATQL [F95R] | 0.049 | 0.0509 | 0.0459 | 0.0605 | 0.0606 | 0.0537 | 0.0593 | 0.0523 | 0.0741 | – | 0.0532 | 0.0544 | 0.048 | 0.0658 | 0.0587 | 0.0514 | 0.0516 | 0.0487 | 0.0482 |
| MGESLFKGPRDYNPISSSICHLTNESDGHTTSLYGIGFGPFIITNKHLFRRNNGTLVVQSLHGVFKVKDTTTLQQHLVDGRDMIIIRMPKDFPPSPQKLKFREPQREERICLVTTNFQTKSMSSMVSDTSCTFPSGDGIFWKHWIQTKDGQCGSPLVSTRDGFIVGIHSASNFTNTNNYFTSVPKNFMELLTNQEAQQWVSGWRLNADSVLWGGHKVFMVKPEEPFQPVKEATQL [F95S] | 0.0405 | 0.0595 | 0.0591 | – | 0.0457 | 0.0526 | 0.059 | 0.0577 | 0.0378 | – | 0.0514 | 0.0585 | – | 0.068 | 0.0527 | 0.0566 | 0.0561 | 0.054 | 0.0499 |
| MGESLFKGPRDYNPISSSICHLTNESDGHTTSLYGIGFGPFIITNKHLFRRNNGTLVVQSLHGVFKVKDTTTLQQHLVDGRDMIKIRMPKDFPPFPQKLKFREPQREERICLVTTNFQTKSMSSMVSDTSCTFPSGDGIFWKHWIQTKDGQCGSPLVSTRDGFIVGIHSASNFTNTNNYFTSVPKNFMELLTNQEAQQWVSGWRLNADSVLWGGHKVFMVKPEEPFQPVKEATQL [I85K] | 0.0525 | 0.0665 | – | – | – | 0.0392 | 0.0653 | 0.0558 | – | – | 0.0279 | 0.0512 | – | 0.0727 | 0.0728 | – | 0.0556 | 0.0514 | – |
| MGESLFKGPRDYNPISSSICHLTNESDGHTTSLYGIGFGPFIITNKHLFRRNNGTLVVQSLHGVFKVKDTTTLQQHLVDGRDMIIIRMPFDFPPFPQKLKFREPQREERICLVTTNFQTKSMSSMVSDTSCTFPSGDGIFWKHWIQTKDGQCGSPLVSTRDGFIVGIHSASNFTNTNNYFTSVPKNFMELLTNQEAQQWVSGWRLNADSVLWGGHKVFMVKPEEPFQPVKEATQL [K90F] | 0.0676 | 0.107 | 0.0625 | 0.0501 | 0.0632 | 0.0643 | 0.0661 | 0.0614 | 0.0648 | 0.0412 | – | – | – | – | – | – | 0.0618 | – | – |
